# In patent publication US20250243260A1 (ALPINE IMMUNE SCIENCES, published 2025):
# B1: CD80_185-Fc, variant CD80 IgV-Fc V11Y/T28Y/M47L (Fc fusion)
# chain: VIHVTKEVKEYATLSCGHNVSVEELAQYRIYWQKEKKMVLTMMSGDLNIWPEYKNRTIFDITNNLSIVILALRPSDEGTYECVVLKYEKDAFKREHLAEVTLSVKADGSGGGGS[omitted - human IgG4 Fc with S228P (EU numbers)]
# notes: variant IgV - GSGGGGS - human IgG4 Fc (S228P)
# B2: CD80_180-Fc, variant CD80 IgV-Fc E10G/V11W/T28Y/M47L (Fc fusion)
# chain: B1 chain with E10G, Y11W
# notes: as for B1
# B3: CD80_167-Fc, variant CD80 IgV-Fc V11Y/M42I/M47V/A71G (Fc fusion)
# chain: B1 chain with Y28T, M42I, L47V, A71G
# notes: as for B1
# B4: CD80_166-Fc, variant CD80 IgV-Fc V11Y/M47V/L85E (Fc fusion)
# chain: B1 chain with Y28T, L47V, L85E
# notes: as for B1
# B5: CD80_173-Fc, variant CD80 IgV-Fc V11Y/T28Y/M47L/L85E (Fc fusion)
# chain: B1 chain with L85E
# notes: as for B1
# B6: CD80_168-Fc, variant CD80 IgV-Fc K9N/E10G/N63S/L85E (Fc fusion)
# chain: B1 chain with K9N, E10G, Y11V, Y28T, L47M, N63S, L85E
# notes: as for B1
# B7: CD80_165-Fc, variant CD80 IgV-Fc V11Y/M47V/F59S/L85E (Fc fusion)
# chain: B1 chain with Y28T, L47V, F59S, L85E
# notes: as for B1
# B8: CD80_179-Fc, variant CD80 IgV-Fc H18F/M42G/F59Y/V68N (Fc fusion)
# chain: B1 chain with Y11V, H18F, Y28T, M42G, L47M, F59Y, V68N
# notes: as for B1
# B9: CD80_175-Fc, variant CD80 IgV-Fc E10S/V11F/T28Y/M47L/T62S (Fc fusion)
# chain: B1 chain with E10S, Y11F, T62S
# notes: as for B1
# B10: CD80_172-Fc, variant CD80 IgV-Fc K9R/E10S/V11Y/M42L/F59M/V68M/L85E (Fc fusion)
# chain: B1 chain with K9R, E10S, Y28T, M42L, L47M, F59M, V68M, L85E
# notes: as for B1
# B11: CD80_182-Fc, variant CD80 IgV-Fc E10G/V11W/E35G/M47L/A71G/Y87R (Fc fusion)
# chain: B1 chain with E10G, Y11W, Y28T, E35G, A71G, Y87R
# notes: as for B1
# B12: CD80_169-Fc, variant CD80 IgV-Fc E10G/E35G/D46E/M47V/V68M (Fc fusion)
# chain: B1 chain with E10G, Y11V, Y28T, E35G, D46E, L47V, V68M
# notes: as for B1
# B13: CD80_171-Fc, variant CD80 IgV-Fc E7S/H18I/V20L/A26K/M47L/A71N (Fc fusion)
# chain: B1 chain with E7S, Y11V, H18I, V20L, A26K, Y28T, A71N
# notes: as for B1
# B14: CD80_177-Fc, variant CD80 IgV-Fc E10G/V11W/V22S/T28P/A71G/E81K/Y87R (Fc fusion)
# chain: B1 chain with E10G, Y11W, V22S, Y28P, L47M, A71G, E81K, Y87R
# notes: as for B1
# B15: CD80_170-Fc, variant CD80 IgV-Fc K9N/E10G/E35G/D46E/M47V/V68M (Fc fusion)
# chain: B1 chain with K9N, E10G, Y11V, Y28T, E35G, D46E, L47V, V68M
# notes: as for B1
# B16: CD80_178-Fc, variant CD80 IgV-Fc V11Y/T28Y/L85E/Y87I (Fc fusion)
# chain: B1 chain with L47M, L85E, Y87I
# notes: as for B1
# B17: CD80_183-Fc, variant CD80 IgV-Fc V11Y/T28Y/M47L/A71G/Y87R (Fc fusion)
# chain: B1 chain with A71G, Y87R
# notes: as for B1
# B18: CD80_176-Fc, variant CD80 IgV-Fc E10R/H18Y/A26G/E35D/V68L/L85E (Fc fusion)
# chain: B1 chain with E10R, Y11V, H18Y, A26G, Y28T, E35D, L47M, V68L, L85E
# notes: as for B1
# B19: CD80_244 variant CD80 IgV-Fc (V11Y, T28Y, M47L, Y87R) (Fc fusion)
# chain: B1 chain with Y87R
# notes: also called CD80_244-Fc
# B20: WT CD80 ECD Fc IgG4 (Fc fusion)
# chain: VIHVTKEVKEVATLSCGHNVSVEELAQTRIYWQKEKKMVLTMMSGDMNIWPEYKNRTIFDITNNLSIVILALRPSDEGTYECVVLKYEKDAFKREHLAEVTLSVKADFPTPSISDFEIPTSNIRRIICSTSGGFPEPHLSWLENGEELNAINTTVSQDPETELYAVSSKLDFNMTTNHSFMCLIKYGHLRVNQTFNWNTTKQEHFPDNGSGGGGS[omitted - human IgG4 Fc with S228P (EU numbers)]
# notes: also called wildtype CD80 ECD-Fc
# Target: T1, human CD28 (endogenously expressed on primary human T cells) (human, UniProt P10747 19-220)
# T1 construct: whole, on cells
# Assay: flow cytometry, primary human T cells
# Method: Binding affinity to CD28 was determined using primary human T cells which endogenously express CD28. Binding to PD-L1 was determined using SCC152 cells transduced with human PD-L1. Binding to CTLA-4 was measured using Chinese hamster ovary (CHO) cells stably transduced to express human CTLA-4.
# For staining and analysis by flow cytometry, 75,000 human T cells, SCC152/PD-L1 cells, or CHO/CTLA-4 cells were plated in 96-well round-bottom plates. Cells were spun down and resuspended in staining buffer (PBS (phosphate buffered saline), 1% BSA (bovine serum albumin), 1 mM EDTA, and 0.1% sodium azide) for 20 minutes to block non-specific binding. Afterwards, cells were centrifuged, stain buffer aspirated, and then resuspended in 50 μL of a 1:5 serial dilution of each CD80-Fc candidate variant starting at 100 nM ending at 0.8 nM. Primary staining was performed on ice for 60 minutes, before washing cells in […] staining buffer three times. PE-conjugated anti-human Fc (Jackson ImmunoResearch, USA) was diluted 1:250 in 50 μL staining buffer and added to cells and incubated another 30 minutes at 4° C. Cells were washed two times in 150 μL stain buffer and then fixed in 2% formaldehyde/PBS for 5 minutes at room temperature. Samples were analyzed CytoFLEX LX flow cytometer (Beckman Coulter, USA). Median Fluorescence Intensity (MFI) was calculated for each cell type using the CytExpert software from Beckman Coulter.
Binder,MFI (anti-human Fc) at 0.8 nM [MFI],MFI (anti-human Fc) at 4 nM [MFI],MFI (anti-human Fc) at 20 nM [MFI],MFI (anti-human Fc) at 100 nM [MFI],fold change of MFI vs WT CD80 at 20 nM [fold]
B1,220,335,680,1420,3.8
B2,216,319,633,1470,3.5
B3,183,192,207,216,1.2
B4,179,192,199,205,1.1
B5,186,202,269,436,1.5
B6,181,187,187,206,1
B7,189,195,196,191,1.1
B8,192,194,212,246,1.2
B9,276,470,796,1190,4.4
B10,223,372,722,1200,4
B11,436,1030,2850,5470,15.9
B12,271,455,756,1040,4.2
B13,280,526,1110,1870,6.2
B14,208,170,201,255,1.1
B15,269,455,696,888,3.9
B16,186,193,202,209,1.1
B17,571,1230,2350,3180,13.1
B18,183,201,272,463,1.5

# Target: T2, human CTLA-4 (human, UniProt P16410 36-223)
# T2 construct: whole, on cells; also called CHO/CTLA-4 cells
# Assay: flow cytometry on CHO/CTLA-4 cells
# T2 sequence (P16410 36-223): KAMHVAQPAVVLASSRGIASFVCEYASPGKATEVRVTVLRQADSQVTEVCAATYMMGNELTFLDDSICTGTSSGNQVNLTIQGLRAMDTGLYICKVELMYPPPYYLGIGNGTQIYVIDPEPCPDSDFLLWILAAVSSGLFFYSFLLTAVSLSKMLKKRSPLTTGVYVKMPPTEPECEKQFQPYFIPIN
Binder,MFI at 0.8 nM [MFI],MFI at 4 nM [MFI],MFI at 20 nM [MFI],MFI at 100 nM [MFI],fold change vs WT CD80 at 20 nM [fold]
B19,306000,507000,497000,527000,0.6
B20,217000,525000,829000,856000,1

# Where a chain is given by its changes, count along the chain named. Names may count otherwise.
